The values below come from the RNAGym collection of RNA variant scans (doi:10.7554/elife.90254).

The labels stand for the following.
B1: LINE1-mini (parent)
chain: GGCAGAGCUCAACACAGCGUGGCAAAGUGGCUGUGGCUAGACUGCC

Read counts are not given, so values of variants with three or more changes are uncertain.

The variants in this series derive from B1. In words: self-cleavage, relative activity (ratio to wild type); higher = more cleavage; in vitro, sequencing; the parent is a self-cleaving ribozyme.
On to C3G U9A A14U U20A G30A G36C, for which the self-cleavage was found to be 0.04.

In the case of C3U A11U U38C, the self-cleavage stood at 0.17.

Turning to C3G U20C C31A G35U G36U C42G, the self-cleavage is 0.03.

As for C3G G7U G29A, the self-cleavage is 0.06.

For the variant C3U A11G U20G, the self-cleavage was found to be 0.02.

For C3U A6C C13G G17U U32C, the self-cleavage was 0.23.

In the case of C3G G5U A12U C18A C23U G40U G44A, the self-cleavage stood at 0.01.

Regarding C3G G21U U34C G40A, the self-cleavage is 0.05.

As to C3U A6G C18U U34A, the self-cleavage was 0.06.

Turning to C3U A4C C15A C23A A26U U38A, the self-cleavage amounted to 0.03.

In the case of C3G G30A A41C, the self-cleavage is 0.14.

In the case of C3G G7C G27U G36U, the self-cleavage was found to be 0.02.

Consider C3G U9G A39G, for which the self-cleavage was 0.19.

C3G G7A A41G: the self-cleavage turned out to be 0.11.

Regarding C3U A6U A25C G36C C45A, the self-cleavage turned out to be 0.02.

For the variant C3U A14U G30A G33C, the self-cleavage came out at 0.07.

Regarding C3U A14C G35C, the self-cleavage is 0.47.

For the variant C3G U9A A26G G30A G44U, the self-cleavage was found to be 0.16.

Take C3U A12U C23A: the self-cleavage was determined as 0.12.

As to C3G G7C A16C A26U C31A, the self-cleavage came to 0.06.

Take C3G G17U G35A A39C: the self-cleavage is 0.03.

C3G U28A U34G: the self-cleavage was 0.04.

Consider C3G G27U C37G, for which the self-cleavage amounted to 0.09.

Consider C3G G21A G35U U38G C45G, for which the self-cleavage amounted to 0.03.

On to C3G G35C U38G A39G C42A G44U, for which the self-cleavage was 0.02.

Consider C3G G5A C45U, for which the self-cleavage stood at 0.11.

Turning to C3G U9G A14G A16U G40A A41C U43G G44A, the self-cleavage was 0.01.

Take C3G G7A G33A: the self-cleavage amounted to 0.19.

In the case of C3G G27C U28C A41C, the self-cleavage amounted to 0.04.

Consider C3G G17C A24C C31U U43A G44U, for which the self-cleavage worked out at 0.04.

As for C3G G17A G35A, the self-cleavage came to 0.15.

For C3G G7C A16C G35U C37A, the self-cleavage was 0.

On to C3G U34A A39G, for which the self-cleavage came to 0.03.

As to C3G G17U G35U, the self-cleavage is 0.09.

Take C3U A4G G7C C18A U28G G30C G33A: the self-cleavage came out at 0.02.

Regarding C3U A6G G7C G17U C23A C31G, the self-cleavage was 0.01.

Consider C3U A6G G21U U32A G40A C46G, for which the self-cleavage was determined as 0.06.

On to C3U A16C G36A, for which the self-cleavage was determined as 0.04.

Regarding C3U A12G G40C, the self-cleavage worked out at 0.02.

For the variant C3U A12U C31A G40A, the self-cleavage came out at 0.

As to C3G G35C A41G, the self-cleavage was 0.11.

On to C3U A4U A11U A12U G21A G22A G33C, for which the self-cleavage was 0.02.

With C3G C37A C46A, the self-cleavage was 0.19.

As for C3U A6G U20A G22A, the self-cleavage worked out at 0.04.

On to C3G G27A U32G A41U G44U, for which the self-cleavage worked out at 0.13.

Regarding C3U A4U U20C, the self-cleavage is 0.1.

For C3G G29U G36U C37U, the self-cleavage was determined as 0.03.

As for C3U A4C A25C G30C, the self-cleavage is 0.05.

Turning to C3U A6C C10U, the self-cleavage is 0.19.

Regarding C3U A11G G22A, the self-cleavage was found to be 0.01.

C3U A6U C31A: the self-cleavage amounted to 0.16.

Take C3G G17U G40C: the self-cleavage stood at 0.07.

With C3G G19U U20C C31A, the self-cleavage is 0.12.

Regarding C3U A4G U9C G17C C18G G22A C31A U34A C46U, the self-cleavage came out at 0.01.

As to C3G G7A C8A G17A C18U A26U U28A C37A, the self-cleavage was 0.3.

For the variant C3U A4U C23U A24G G30A, the self-cleavage was determined as 0.57.

In the case of C3U A4U C23A G40C C42A, the self-cleavage stood at 0.16.

For the variant C3U A14U C15A G29U, the self-cleavage was determined as 0.23.

For C3G G5C A11C G30C, the self-cleavage worked out at 0.01.

Turning to C3G G5U C13A G19U G27U G40U, the self-cleavage came to 0.02.

As to C3G G22A C23U C31G U32G C37U, the self-cleavage came to 0.04.

As for C3G G30A C31A A39G, the self-cleavage is 0.03.

For C3G C23U A39U C45A, the self-cleavage came out at 0.05.

For C3G G35U G36C, the self-cleavage was found to be 0.06.

Turning to C3G G21A G40U C46G, the self-cleavage came out at 0.08.

Consider C3U A6U U38G, for which the self-cleavage was 0.

With C3G G5A A12U C15U G27C, the self-cleavage came to 0.03.

As to C3G G27A U28G G35C A41U C45A, the self-cleavage stood at 0.

C3G C23G C37A: the self-cleavage turned out to be 0.04.

As for C3G G36U C42G, the self-cleavage is 0.01.

In the case of C3G G5U U9C A11G G19C C31A, the self-cleavage worked out at 0.01.

Consider C3G G19U U20A A39U, for which the self-cleavage came to 0.04.

C3U A4G C15U G17U U28A G29U: the self-cleavage worked out at 0.1.

C3G G7U C8A C18A: the self-cleavage was found to be 0.43.

C3G G7U C15A G19U G21A A25U: the self-cleavage worked out at 0.14.

For C3G G19U G33A C37A, the self-cleavage was 0.2.

Take C3G G22U U43A: the self-cleavage was determined as 0.1.

Regarding C3U A14U A25G A41C C45U, the self-cleavage worked out at 0.07.

On to C3U A4U C23A A26U, for which the self-cleavage was determined as 0.16.

In the case of C3U A4C A16C G30C C37G U38C, the self-cleavage was 0.06.

Regarding C3G G7C U43A, the self-cleavage stood at 0.08.

Consider C3U A4U C10A, for which the self-cleavage worked out at 0.03.

Take C3U A11G A16G C42G: the self-cleavage worked out at 0.

Regarding C3G G5U G22A, the self-cleavage was 0.11.

Consider C3U A6U A26C U38C A41C C45G, for which the self-cleavage is 0.2.

As to C3U A4G G19A A24U A41C U43C, the self-cleavage amounted to 0.05.

Regarding C3U A6U C46U, the self-cleavage was found to be 0.2.

Consider C3G G7A G30C, for which the self-cleavage came out at 0.86.

Consider C3G U9C C15A A16U G19U, for which the self-cleavage is 0.03.

In the case of C3G G29U G36U, the self-cleavage was determined as 0.28.

In the case of C3U A4C G29U G44A, the self-cleavage amounted to 0.02.

In the case of C3G G33C A41C, the self-cleavage was 0.02.

Regarding C3G G5A C8A G27U G35C, the self-cleavage turned out to be 0.2.

As to C3U A6C C45G, the self-cleavage was found to be 0.11.

For the variant C3U A4G C13G, the self-cleavage is 0.1.

As to C3G G30A C31U, the self-cleavage is 0.05.

For the variant C3U A4U G7U C15G G17A G30A, the self-cleavage came to 0.03.

As to C3U A4C A12G G19C G30A U34C, the self-cleavage stood at 0.01.

With C3U A4C A26C, the self-cleavage came out at 0.13.

In the case of C3G U9G G44A, the self-cleavage amounted to 0.16.

As to C3U A4U U9G G27A C46A, the self-cleavage is 0.12.

Consider C3U A12U C13A G36C, for which the self-cleavage was 0.21.

On to C3U A12G C13A C15A G19C A41G C45A, for which the self-cleavage was found to be 0.07.

Regarding C3U A12C C23U, the self-cleavage was found to be 0.03.

As to C3U A6C C8U C23G A24C U28A C31U C37U A41C, the self-cleavage was 0.01.

With C3G G5A A11U A24U G40U, the self-cleavage was 0.08.

With C3G U20G G21U C46U, the self-cleavage worked out at 0.77.

With C3U A11C C13U G40C, the self-cleavage came out at 0.02.

With C3G C23G U34C C45U, the self-cleavage amounted to 0.05.

Regarding C3G G19C A25U, the self-cleavage was 0.15.

Regarding C3U A4U G5U A14U C15G, the self-cleavage was 0.09.

As to C3U A6U U34G G35U, the self-cleavage was determined as 0.09.

With C3U A6U G19U, the self-cleavage was found to be 0.19.

As to C3G G22A G40A U43C, the self-cleavage worked out at 0.03.

For C3G U9A C10A C23U C31U C42A G44U C45U, the self-cleavage turned out to be 0.03.

Turning to C3U A4U G5A C10G A11G G19U G30U C37U A39C, the self-cleavage came to 0.02.

As for C3G G17C C31G G35C, the self-cleavage was 1.58.

For the variant C3G G17A G33A G35A, the self-cleavage was determined as 0.03.

C3U A4U G5A C10U A16U G21C A25C G27A: the self-cleavage was determined as 0.04.

As for C3G G7C C23A C45G, the self-cleavage amounted to 0.01.

For the variant C3U A4G U20C, the self-cleavage was 0.05.

As to C3U A11C G21C G22A G33U U43A G44A, the self-cleavage was found to be 0.01.

As to C3U A6C C23U A39U, the self-cleavage came out at 0.42.

Turning to C3G U9G G22U U34G, the self-cleavage turned out to be 0.14.

As for C3U A4U A6C C10A, the self-cleavage came out at 0.05.

Turning to C3U A6U G21U, the self-cleavage turned out to be 0.99.

For C3G G5A C42A, the self-cleavage came out at 0.04.

With C3U A4G G19U U38G, the self-cleavage worked out at 0.03.

Consider C3G G44A C46G, for which the self-cleavage was 0.14.

As for C3G U9C G17A U20A U28G G30C C31U A39C, the self-cleavage came to 0.02.

For the variant C3G G27C G44C, the self-cleavage came to 0.91.

As to C3G G5C G19C A26U G36A C37G, the self-cleavage turned out to be 0.03.

As for C3G C31A G35U, the self-cleavage amounted to 0.24.

Consider C3G U9G A41G, for which the self-cleavage stood at 0.09.

For C3G C31U A39G, the self-cleavage is 0.08.

With C3G U9C C10G C13G G17A, the self-cleavage was 0.02.

With C3G C31G G36A, the self-cleavage came to 0.4.

Turning to C3G G5U C23U U38A C42U, the self-cleavage was 0.09.

With C3U A4C A11U A25C, the self-cleavage is 0.06.

For C3G G7C C8U G29U G35U A41G, the self-cleavage turned out to be 0.14.

Turning to C3U A4C C13U U28C, the self-cleavage came to 0.1.

Turning to C3G U34G C37G A41U, the self-cleavage was 0.05.

For the variant C3G G5A G7A C45A, the self-cleavage turned out to be 0.25.

C3G U9A C13A U34C C37U: the self-cleavage was 0.21.

With C3U A11G G19U G33U, the self-cleavage is 0.01.

As to C3G U9A G29A C31G, the self-cleavage is 0.11.

Turning to C3G G5C A11C, the self-cleavage worked out at 0.06.

For the variant C3G G5A G35C G44U, the self-cleavage amounted to 0.12.

On to C3U A4G C8G C23U, for which the self-cleavage was found to be 0.06.

Consider C3G U32C G44U, for which the self-cleavage is 0.09.

As to C3G U20A C23U G33C G36U U43C, the self-cleavage is 0.04.

C3U A6U C8U U43A: the self-cleavage stood at 0.24.

In the case of C3G G21C G22C U28C G35U, the self-cleavage worked out at 0.04.

Consider C3G U28A U34A G36U C45G, for which the self-cleavage is 0.21.

On to C3G C23U G27C, for which the self-cleavage was determined as 0.08.

For C3G G7U C10A A25U G27C G44U, the self-cleavage is 0.01.

Consider C3U A12C A16G G21U, for which the self-cleavage is 0.

For C3U A14C A16G, the self-cleavage came out at 0.09.

For the variant C3U A4C C15G A16G U20A G21A G36C, the self-cleavage is 0.14.

For the variant C3U A12C C46U, the self-cleavage was determined as 0.01.

On to C3G G5A G7C, for which the self-cleavage was 0.06.

As to C3G G27U G33C, the self-cleavage amounted to 0.04.

For the variant C3U A14U C18A C37A, the self-cleavage came out at 0.01.

In the case of C3U A6U C18G C23U C45U, the self-cleavage was determined as 0.07.

C3G G7U C15A A24U: the self-cleavage worked out at 0.06.

With C3G G30A G40A, the self-cleavage was found to be 0.18.

For C3G G5A G22C G33A C46A, the self-cleavage stood at 0.07.
